Data as given in ChEMBL document CHEMBL5303300, “EUbOPEN Chemogenomics Library - Multiplex” (2023).
Not every entry of the source has a single result; some have several. This list holds those alone. The source may hold further records. The records of an entry repeat one measurement across runs, samples, wells, individuals or studies.

System: U2OS
Assay: Multiplex assay against U2OS
Format: toxicity, cell-based
Conditions: human, number of replicates 2
Method in brief: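 Compound was added to live cells that had been stained at seeding with Hoechst33342, BioTracker Green Microtubule Cytoskeleton Dye, MitoTracker Red and Annexin V Alexa Fluor 680, and imaging followed on a CQ1 microscope at 37°C and 5% CO2. CellPathfinder machine-learning gating divided cells into Hoechst high-intensity objects or normal cells, normal cells into healthy, pyknosed or fragmented nuclei, and pyknosed cells into mitotic or apoptotic. Tubulin, mitochondrial-mass and membrane-permeability phenotypes are per cents of healthy-nucleus cells.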

[1] = 12 h, 1 µM, compound concentration 1 uM
[2] = 24 h, 1 µM, compound concentration 1 uM
[3] = 48 h, 1 µM, compound concentration 1 uM
[4] = 48 h, 10 µM, compound concentration 10 uM
[5] = 12 h, 10 µM, compound concentration 10 uM
[6] = 24 h, 10 µM, compound concentration 10 uM

| SMILES | Population Fragmented Nuclei (%) [1] | Total Cell Count [1] | Population Fragmented Nuclei (%) [2] | Total Cell Count [2] | Population Fragmented Nuclei (%) [3] | Population Membrane Permeable-Phenotype (%) [3] | Total Cell Count [3] | Population Healthy Nuclei (%) [4] | Total Cell Count [5] | Total Cell Count [6] | Population Membrane Permeable-Phenotype (%) [4] | Population Mitochondria Different-Phenotype (%) [4] | Total Cell Count [4] | Population Mitotic Cells (%) [1] | Population Fragmented Nuclei (%) [5] | Population Fragmented Nuclei (%) [6] | Population Fragmented Nuclei (%) [4] | Population Pyknosed Nuclei (%) [2] | Population Pyknosed Nuclei (%) [3] | also measured |
| --- | --- | --- | --- | --- | --- | --- | --- | --- | --- | --- | --- | --- | --- | --- | --- | --- | --- | --- | --- | --- |
| Cc1cn(CCN2CCN(c3ccccc3-c3cc(C#N)cc(C(=O)NCCCN4CCCC4)c3)CC2)c2ccccc12 | 16% and 4% | 49 and 199 | 20% and 1% | 62 and 256 | 17% and 4% | 15% and 4% | 75 and 411 | 44% and 8% | – | – | – | – | – | – | – | – | – | – | – | – |
| CNc1ncc2cc(-c3ccc(-c4cccc(C)n4)cc3Cl)c(=O)n(C[C@H]3OC[C@H](N)CO3)c2n1 | 47% and 3% | 42 and 165 | 33% and 8% | 42 and 210 | 29% and 6% | – | 75 and 416 | 13% and 48% | 74 and 290 | 72 and 331 | 55% and 4% | 44% and 9% | 72 and 427 | – | – | – | – | – | – | Population Membrane Permeable-Phenotype (%) [1]: 21% and 1%; Population Mitochondria Different-Phenotype (%) [5]: 35% and 10%; Population Membrane Permeable-Phenotype (%) [2]: 16% and 2%; Population Membrane Permeable-Phenotype (%) [6]: 14% and 2% |
| CNS(=O)(=O)c1ccc(N(C)C)c(Nc2ncnc3cc(OC)c(OC)cc23)c1 | 15% and 3% | 26 and 216 | 23% and 2% | 30 and 308 | 20% and 3% | – | 59 and 706 | – | – | 59 and 224 | – | – | 102 and 327 | 0% and 38% | 35% and 2% | 20% and 2% | 35% and 7% | – | – | – |
| O=C1NC(=NCc2cccs2)SC1=Cc1ccc2ncccc2c1 | 21% and 3% | 32 and 151 | – | 51 and 203 | 22% and 4% | – | 71 and 437 | – | 33 and 194 | 41 and 209 | – | 26% and 1% | 42 and 220 | 0% and 40% | 21% and 6% | 17% and 5% | – | 21% and 6% | 19% and 6% | Population Mitotic Cells (%) [3]: 7% and 26% |
| CN1CCc2cc(Nc3ncc(C(F)(F)F)c(NCc4cc[nH]n4)n3)ccc2C1 | 100% and 13% | 4 and 153 | 100% and 16% | 3 and 179 | 100% and 15% | 0% and 33% | 2 and 168 | – | 24 and 183 | 32 and 184 | 12% and 50% | 12% and 66% | 189 and 38 | – | 50% and 15% | 62% and 12% | 14% and 60% | 0% and 48% | 0% and 63% | Population Apoptotic (%) [1]: 0% and 87%; Population Healthy Nuclei (%) [1]: 0% and 60%; Population Pyknosed Nuclei (%) [1]: 0% and 26%; Population Tubulin-Different-Phenotype (%) [1]: 0% and 90%; Population Apoptotic (%) [5]: 0% and 72%; Population Mitotic Cells (%) [5]: 100% and 28%; Population Apoptotic (%) [2]: 0% and 91%; Population Healthy Nuclei (%) [2]: 0% and 34%; Population Tubulin-Different-Phenotype (%) [2]: 0% and 81%; Population Apoptotic (%) [3]: 0% and 99%; Population Tubulin-Different-Phenotype (%) [3]: 0% and 91% |
